In the supplement of paper PMC4967469:
By IC50 is meant the dose at which the fit gives 50% viability; fits outside the tested doses are given as limits. AUC, from the same fit, is the share of area under the viability curve across the 256-fold dose range; the more sensitive the line, the further below 1. For part of these data: The top dose, if marked as inferred, comes from the curve model; the source does not state it.

Experiments:
Experiment in all cases: Viability of human cancer cell lines after 72 h of drug (GDSC screen)
KIN001-244 = compound: O=C(NC(COc1ccc2[nH]c(=O)[nH]c2c1)c1ccccc1)c1cccn(Cc2ccc(F)c(F)c2)c1=O [KIN001-244]; conditions: top dose 20 µM; top dose inferred
Description: (§1)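 Human cancer cell lines in 384-well plates, medium with 10% serum, drug for 72 h over a 256-fold dose range (nine 2-fold or five 4-fold steps up to the top dose). Adherent lines were fixed and stained with the nucleic acid dye Syto60, suspension lines read with resazurin; signal relative to control wells, capped at 0 and 100%. One two-parameter sigmoid per drug and line, fitted in a mixed model over all curves with the slope shared within a line.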

I-BET-762 = compound: CCNC(=O)C[C@@H]1N=C(c2ccc(Cl)cc2)c2cc(OC)ccc2-n2c(C)nnc21 [I-BET-762]; conditions: top dose 20 µM; top dose inferred
Description: as §1

HG-6-64-1 = compound: CCN1CCN(Cc2ccc(NC(=O)c3ccc(C)c(/C=C/c4cnc5[nH]ccc5c4OC)c3)cc2C(F)(F)F)CC1 [HG-6-64-1]; conditions: top dose 5.12 µM; top dose inferred
Description: as §1

AV-951 = compound: COc1cc2nccc(Oc3ccc(NC(=O)Nc4cc(C)on4)c(Cl)c3)c2cc1OC [AV-951]; conditions: top dose 0.128 µM; top dose inferred
Description: as §1

MS-275 = compound: Nc1ccccc1NC(=O)c1ccc(CNC(=O)OCc2cccnc2)cc1 [MS-275]; conditions: top dose 5 µM; top dose inferred
Description: as §1

Trametinib = compound: CC(=O)Nc1cccc(-n2c(=O)n(C3CC3)c(=O)c3c(Nc4ccc(I)cc4F)n(C)c(=O)c(C)c32)c1 [Trametinib]; conditions: top dose 1 µM
Description: as §1

PF-4708671 = compound: CCc1cncnc1N1CCN(Cc2nc3ccc(C(F)(F)F)cc3[nH]2)CC1 [PF-4708671]; conditions: top dose 10 µM; top dose inferred
Description: as §1

| Cell Line | AUC (KIN001-244) | IC50 (KIN001-244) | AUC (I-BET-762) | IC50 (I-BET-762) | AUC (HG-6-64-1) | IC50 (HG-6-64-1) | AUC (AV-951) | IC50 (AV-951) | AUC (MS-275) | IC50 (MS-275) | AUC (Trametinib) | IC50 (Trametinib) | AUC (PF-4708671) | IC50 (PF-4708671) |
| --- | --- | --- | --- | --- | --- | --- | --- | --- | --- | --- | --- | --- | --- | --- |
| BC-3 (B-cell lymphoma, suspension) | 0.829 | 10.7 µM | 0.953 | > 20 µM | 0.911 | > 5.12 µM | 0.987 | > 0.128 µM | 0.656 | 0.803 µM | – | – | – | – |
| CAL-148 (breast, suspension) | 0.884 | 18.9 µM | 0.867 | 15.7 µM | 0.963 | > 5.12 µM | 0.985 | > 0.128 µM | 0.728 | 1.31 µM | – | – | – | – |
| CRO-AP2 (B-cell lymphoma, suspension) | – | – | – | – | – | – | – | – | 0.376 | 0.149 µM | 0.975 | > 1 µM | – | – |
| DOHH-2 (B-cell lymphoma, suspension) | – | – | – | – | 0.465 | 0.257 µM | – | – | 0.899 | > 5 µM | – | – | – | – |
| ECC12 (stomach, suspension) | – | – | – | – | 0.633 | 0.823 µM | – | – | 0.626 | 0.762 µM | – | – | – | – |
| EW-12 (Ewing sarcoma, suspension) | – | – | – | – | – | – | – | – | 0.812 | > 5 µM | – | – | – | – |
| EW-22 (Ewing sarcoma, adherent) | – | – | – | – | – | – | – | – | 0.922 | > 5 µM | 0.973 | > 1 µM | 0.941 | > 10 µM |
| GCIY (stomach, adherent) | 0.88 | > 20 µM | 0.969 | > 20 µM | 0.738 | 1.69 µM | 0.981 | > 0.128 µM | 0.835 | 3.89 µM | – | – | 0.869 | > 10 µM |
| H9 (lymphoid neoplasm, suspension) | 0.8 | 7.74 µM | 0.992 | > 20 µM | 0.856 | 3.02 µM | 0.989 | > 0.128 µM | 0.424 | 0.201 µM | – | – | 0.96 | > 10 µM |
| HCC1599 (breast, suspension) | 0.711 | 5.45 µM | 0.814 | 12.9 µM | 0.87 | > 5.12 µM | 0.981 | > 0.128 µM | 0.586 | 0.555 µM | – | – | – | – |
| HCC2998 (large intestine, adherent) | 0.935 | > 20 µM | 0.968 | > 20 µM | 0.925 | > 5.12 µM | 0.988 | > 0.128 µM | 0.662 | 0.867 µM | – | – | 0.962 | > 10 µM |
| HCC-33 (small cell lung carcinoma, adherent) | 0.957 | > 20 µM | 0.848 | 15.2 µM | 0.967 | > 5.12 µM | 0.985 | > 0.128 µM | 0.489 | 0.291 µM | – | – | – | – |
| KP-N-YS (neuroblastoma, adherent) | 0.861 | > 20 µM | 0.829 | 15 µM | 0.839 | 4.24 µM | 0.962 | > 0.128 µM | 0.922 | > 5 µM | – | – | – | – |
| LB373-MEL-D (melanoma, adherent) | 0.886 | > 20 µM | 0.987 | > 20 µM | – | – | 0.99 | > 0.128 µM | 0.81 | 2.56 µM | 0.445 | 0.0445 µM | 0.99 | > 10 µM |
| LS-411N (large intestine, adherent) | 0.865 | > 20 µM | 0.646 | 3.47 µM | 0.731 | 1.7 µM | 0.963 | > 0.128 µM | 0.683 | 1.14 µM | – | – | 0.95 | > 10 µM |
| MHH-NB-11 (neuroblastoma, adherent) | 0.89 | > 20 µM | 0.841 | 15.9 µM | 0.96 | > 5.12 µM | 0.966 | > 0.128 µM | 0.576 | 0.517 µM | – | – | – | – |
| ML-2 (acute myeloid leukaemia, suspension) | 0.681 | 3.75 µM | – | – | 0.898 | > 5.12 µM | 0.989 | > 0.128 µM | 0.738 | 1.36 µM | – | – | 0.949 | > 10 µM |
| MOLP-8 (myeloma, suspension) | 0.641 | 3.01 µM | 0.349 | 0.487 µM | 0.667 | 0.912 µM | 0.986 | > 0.128 µM | 0.614 | 0.635 µM | – | – | 0.981 | > 10 µM |
| MOLT-13 (T-cell lymphoblastic leukaemia, suspension) | 0.903 | > 20 µM | 0.464 | 1.01 µM | – | – | 0.971 | > 0.128 µM | 0.498 | 0.309 µM | 0.171 | 0.00746 µM | 0.964 | > 10 µM |
| MSTO-211H (mesothelioma, adherent) | 0.991 | > 20 µM | 0.99 | > 20 µM | 0.991 | > 5.12 µM | 0.99 | > 0.128 µM | 0.749 | 1.49 µM | – | – | 0.991 | > 10 µM |
| MY-M12 (leukaemia, suspension) | 0.447 | 0.881 µM | 0.518 | 1.41 µM | 0.168 | 0.0264 µM | 0.626 | 0.0187 µM | 0.559 | 0.463 µM | – | – | 0.918 | > 10 µM |
| NB6 (neuroblastoma, adherent) | 0.869 | > 20 µM | 0.845 | 19.7 µM | 0.88 | > 5.12 µM | 0.936 | > 0.128 µM | 0.835 | 4.4 µM | – | – | 0.972 | > 10 µM |
| NB69 (neuroblastoma, adherent) | 0.875 | 15.8 µM | 0.885 | 17.6 µM | 0.681 | 0.96 µM | 0.984 | > 0.128 µM | 0.729 | 1.28 µM | – | – | 0.932 | > 10 µM |
| NCI-H64 (small cell lung carcinoma, suspension) | 0.869 | 10.9 µM | 0.755 | 5.3 µM | 0.771 | 1.49 µM | 0.996 | > 0.128 µM | 0.92 | 4.14 µM | – | – | 0.996 | > 10 µM |
